Variants at the floor of the assay are shown more often than the library holds them.
B1: TPR 5TU (parent)
chain: GGAUCUUCUCGAUCUAACAAAAAAGACAAAUCUGCCACAAAGCUUGAGAGCAUCUUCGGAUGCAGAGGCGGCAGCCUUCGGUGGCGCGAUAGCGCCAACGUUCUCAACUAUGACACGCAAAACGCGUGCUCCGUUGAAUGGAGUUUAUCAUG

Variants of: B1
Experiment: polymerase ribozyme fitness, log enrichment relative to wild type (log ratio); higher = more active; in vitro selection for triplet polymerase activity
Outline: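 Fitness is a logarithmic measure of how a genotype enriched relative to the wild type, with replicate averages weighted by inverse variance. The logarithm uses base 2, and enrichment came from Illumina sequencing of input and output libraries. Those libraries were PCR-built, transcribed mutants of each subunit of a heterodimeric triplet polymerase ribozyme, passed through one triplicate in vitro selection round that included frozen incubation at −7 °C, gel excision of extended constructs and streptavidin-bead capture. Genotypes were kept only if they had ≥10 input reads and ≥1 read per output.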

Row | Variant | polymerase ribozyme fitness (log ratio)
1 | GGAUCUUCUCGAGCUAACAAAAAAGACAAAUCUGCCACAAAGCUUGCGAGCAACUUCGGAUGCAGAGGCGGCAGCCUUCGGUGGCGCGAUAACGCCAACGUUCUCAACUAUGACACGCAAAACGCUUGCUCCGUUGAAUGGAAUUUAUCAUG | ≤ -4.2
2 | GGAUCUUCUCGAGCUAACAAAAAAGACAAAUCUGCCACAAAGCUUGAGAGCAUCUUCGGAUGCAGAGGCGGCAGGCUUCGGUGGCGCGAUAGCGCCAACGUUCUCAACUAUGACACGCAAAACGCGUGCUCCGUUGAAUGGAGUUUAUCAUG | ≤ -4.2
3 | GGAUCUUCUCGAGCUAACAAAAAAGACAAAUCUGCAACAAAGCUUGAGAGCAUCUUCGGAUGCAGAGGCGGCAGCCUUCGGUUGCGCGAUAGCGCCAAAGUUCUCAACUAUGACACGCAAAACGCGUGCUCCGUUGAAUUGAGUUUAUCAUG | -4
4 | GGAUCUUCUCGAGCUAACAAAAAAGACAAAUCUGCCACAAAGCUUGAGAGCAUCUUCGGUUGCAGAGGCGGCAGCCUUCGGUGGCGCGAUAGCGCAAACGUUCUCAACUAUGACACGCAAAACGCGUGCUCCGUUGAAUGGAGUUUAUCCUG | ≤ -4.2
5 | GGAUCUUCUCGAGCUAACAAAAAAGACAAAUCUGCCACAAAGGUUGAGAGCAUCUUCGAAUGCAGAGGCGGCAGCCUUCGGUGGCGCGAUAGCGCCAACGUUCUCAACUAUGACACGCAAAACGCGUGCUCCGUUGAAUGGAGUUUAUCAUG | ≤ -4.2
6 | GGAUCUUCUCGAGCUAACAAAAAAGACAAAUCUGCCACAAAGCUUGAGAGCAUCUUUGGAUGCAGAGGCGGCAGCCUUCGGUGGCGCGAUAGCGCGAACGUUCUCAACUAUGACACGCAAAACGCGUGCUCCGUUGAAUGGAGUUUAUCAUG | -1.66
7 | GGAUCUUCUCGAGCUAACAAAAAAGACAAAUCUGUCACAAAGCUUGAGCGCAUCUUCGGAUGCAGAGGCGGCAGCCUUCGGUGGCGCGAUAGCGCCAACGUUCUCAUCUAUGACACGCAAAACGCGUGCUCCGUUGAAUGGAGUUUAUCAUG | ≤ -4.2
8 | GGAUCUUCUCGAGCUAACAAAAAAGACAAAUCUGCCAUAAAGCUUGAGAGCAUCUUCGGAUGUAGAGGCGGCAGCUUUCGGUGGCGCGAUGGGGUCAACGUUCUCAACUAUGACACGCAAAACGCGUGCUCCGUUGAAUGGAGUUUAUUAUG | ≤ -4.2
9 | GGAUCUUCUCGAGCUAACAAAAAAGAUAAAUCUGCCACAAAGCUUGAGAGCAUCAUCGGAUGCAGAGGCGGCAGCCUUCGGUGGCGCGAUAGCGCCAACGUUCUCAACUAUGACACGCAAAACGCGUGCUCCGUUGAAUGCAGUUUAUCAUG | ≤ -4.2
10 | GGAUCUUCUCGAGCUAACAAAAAAGACAAAUCUGCCACAAAGUUUGAGAGUAUCUUCGGAUGCAGAGGCGGCAGCCUUCGGUGGCGCGAUAGGGCCAACGUUCUAAAUUAUGACUCGCAAAACGCGUGCUCCGUUGCAUGGAGUUUAACAUG | ≤ -4.2
11 | GGAUCUUCUCGAGCUAACAAAAAAGACAAAUCUGCCACAUAGCUUGAGAGCAUCUUCGGAUGCAGAGGCGGCAGCCUUCGGUGGCGCGAUAGCGCGAACGUUCUCAACUAUGACACGCAAGACGCGUGCUCCGUUGAAUGGAGUUUAUCAUG | -2.57
12 | GGAUCUUCUCGAGCUAACAAAAAAGAAAAAUCUGCUACACAGCUUGAGAGCAUCUUCGGGUGCAGAGGCGGCAGCCUUCGGUGGCGCGAUAGCGCCAACGUUCUCAACUAUGACACGCAAAACGCGUGCUCCGUUGAGUGGAGUUUAUCAUG | ≤ -4.2
13 | GGAUCUUCUCGAGCUAACAAAAAAGACAAAUCUGCCACAAAGCUUGAGAGCAUCUUCGGAUGCAGAGGCGGCAGUCUUCGGUGGCGCGAUCGCGCCAACGUUCUCAACUAUGACACGCAAAACGCGUGCUCCGUUGAAUGGAGUUUAUCAUG | ≤ -4.2
14 | GGAUCUUCUCGAGCUAACAAAAAAGACAAAUCUGACACAAAGCUUGAGAACAUAUUCGGAUGCAGAGGCGGCAGCGUUCGGUGGCGGGUUAGCGCCAACGUUCUCACCUAUGACACGCAAAACGCGUGCUCCGUUAGAUGGAUUUUAUCAUG | ≤ -4.2
15 | GGAUCUUCUCGAGCUAACAAAAAAGACAAAUCUGCCACAAAGCUUGAGAGCAUCUUCGGAUGCAGAGGAGGCGGCCUUCGGUGGCGUGAUAGCGCCAACGUUCUCAACUAUGACACGCAAAACGCGUGCUCCGUUGAAUGGAGUUUAUCAUG | ≤ -4.2
16 | GGAUCUUCUCGAGCUAACAAAAAAGACAAAUCUGCCACAACGCUUGAGAGCAUCUUCGGAUGCAGAGGCGGCAGCCUUCGGUGGCGCGAUAGCGCUAACGUUCUCAUCUAUGACACGCAAAACGCGUGCUACAUUGAAUGGAGUUCAUCAUG | ≤ -4.2
17 | GGAUCUUCUCGAGCUAACAAAAAAGACAAAUCUGCCACAGAGCUUGAGAGCAUCUACGGGUGCGGAGGCGGCAUCCUUCGGUGGCGCGAUUGCGCCAACGUUCUCAACUAUGACACGCAAAACGCGUGCUCCGUUGAAUUGAGUUUAUCAUG | ≤ -4.2
18 | GGAUCUUCUCGAGCUAACAAAAAAGACAAAUAUGCCACAAAGCUUGAGAGCAUCUUCGGAUGCAGAGGCGGCAGCCUUCGGUGGCGUGAUAACGCCAACUUUCUCAACUAUGACACGCAAAAGGUGUGCUCCGUUGAAUGGAGUUUAUCAUG | ≤ -4.2
19 | GGAUCUUCUCGAGCUAACAAAAAAGACAAAUCUGCCACAAAGCUUGAGAGCAUCUUCGGAUGCAGAGGAGGCAGCCUUCGGUGGCGCGAUAGCGCCAACGUUCUCAACUAUGACACGCAAAACGCGUGCUCCGUUGAAUGGAGUUUAUCAUG | ≤ -4.2

Reference: the RNAGym collection of RNA variant scans (doi:10.1073/pnas.2313332121)
